{"source": "paper PMC4336329", "about": "(PLoS ONE, 2015)", "note": "Among all 310,000 compounds or so, about 2,200 (0.71%) showed an effect of 50% or more. Effects have a minus sign here. This is one part of the list."}
{"target": "human ether-à-go-go-related gene (hERG) potassium channel (human, UniProt Q12809)", "sequence (Q12809 whole entry, looked up)": "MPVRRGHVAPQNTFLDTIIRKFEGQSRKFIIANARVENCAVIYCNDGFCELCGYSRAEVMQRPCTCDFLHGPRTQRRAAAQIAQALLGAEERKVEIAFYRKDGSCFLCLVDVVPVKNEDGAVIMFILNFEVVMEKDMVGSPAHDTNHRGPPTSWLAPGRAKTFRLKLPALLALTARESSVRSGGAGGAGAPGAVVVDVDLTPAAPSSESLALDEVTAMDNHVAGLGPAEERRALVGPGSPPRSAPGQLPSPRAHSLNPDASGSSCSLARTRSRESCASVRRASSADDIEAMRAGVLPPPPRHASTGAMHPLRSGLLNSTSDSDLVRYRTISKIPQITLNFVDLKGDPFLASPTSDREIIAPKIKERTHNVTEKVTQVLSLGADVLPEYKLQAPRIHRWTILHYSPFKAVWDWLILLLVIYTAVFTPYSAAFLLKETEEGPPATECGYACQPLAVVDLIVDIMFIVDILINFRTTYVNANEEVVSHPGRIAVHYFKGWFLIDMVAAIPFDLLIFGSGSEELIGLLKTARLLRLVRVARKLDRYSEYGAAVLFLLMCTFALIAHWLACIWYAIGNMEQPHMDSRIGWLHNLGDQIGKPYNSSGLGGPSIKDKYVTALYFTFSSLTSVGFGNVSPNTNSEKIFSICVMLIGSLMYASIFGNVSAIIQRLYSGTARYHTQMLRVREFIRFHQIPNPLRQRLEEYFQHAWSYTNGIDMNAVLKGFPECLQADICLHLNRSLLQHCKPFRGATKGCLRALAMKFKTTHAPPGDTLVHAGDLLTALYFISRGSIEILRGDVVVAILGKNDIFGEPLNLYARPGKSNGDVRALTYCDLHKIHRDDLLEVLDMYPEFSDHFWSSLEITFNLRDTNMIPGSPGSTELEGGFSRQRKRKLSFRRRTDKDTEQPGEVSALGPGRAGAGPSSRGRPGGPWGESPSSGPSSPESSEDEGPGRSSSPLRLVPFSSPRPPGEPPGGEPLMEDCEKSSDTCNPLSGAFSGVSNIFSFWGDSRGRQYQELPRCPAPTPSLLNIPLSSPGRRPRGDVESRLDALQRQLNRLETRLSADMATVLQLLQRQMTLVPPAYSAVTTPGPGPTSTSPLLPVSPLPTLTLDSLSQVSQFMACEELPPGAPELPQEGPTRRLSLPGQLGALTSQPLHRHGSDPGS", "experiment": "primary screen, population patch clamp on CHO cells stably expressing hERG", "units": {"hERG current change (%, negative = inhibition) at 1uM": "%"}}
{"molecule": "CCc1cccc(C)c1NC(=O)COC(=O)C1CCN(S(=O)(=O)c2ccccc2)CC1", "hERG current change (%, negative = inhibition) at 1uM": 20.2}
{"molecule": "CCc1ccccc1NC(=O)/C(C#N)=C\\c1ccc(Sc2ccccc2)o1", "hERG current change (%, negative = inhibition) at 1uM": -7.2}
{"molecule": "O=C(CSc1nnc(-c2cccs2)n1Cc1ccco1)Nc1ccc2c(c1)OCO2", "hERG current change (%, negative = inhibition) at 1uM": 0.29}
{"molecule": "CCN(CC)c1ccc(N=Cc2ccc([N+](=O)[O-])o2)cc1", "hERG current change (%, negative = inhibition) at 1uM": 1.1}
{"molecule": "C=CCNC(=S)N(CC)c1cccc2ccccc12", "hERG current change (%, negative = inhibition) at 1uM": 2.02}
{"molecule": "Cc1nc(N2CCCC2)c2ccsc2n1", "hERG current change (%, negative = inhibition) at 1uM": 8.87}
{"molecule": "COc1ccc(NC(=O)CN2CCN(Cc3ccccc3)CC2)cc1", "hERG current change (%, negative = inhibition) at 1uM": -25.8}
{"molecule": "COC(=O)Cn1cnc2c1c(=O)n(C)c(=O)n2C", "hERG current change (%, negative = inhibition) at 1uM": 5.91}
{"molecule": "O=C(N/N=C/c1ccc(-c2ccc(S(=O)(=O)Nc3ncccn3)cc2)o1)c1cc2ccccc2cc1O", "hERG current change (%, negative = inhibition) at 1uM": 17.6}
{"molecule": "CCC(NC(=O)c1ccccc1NC(=O)c1ccc(OC)cc1)C(=O)N1CCCC1", "note": "(centres unmarked)", "hERG current change (%, negative = inhibition) at 1uM": 10.9}
{"molecule": "CCCC(=O)Nc1ccc(NC(=O)c2cccc(OC)c2)cn1", "hERG current change (%, negative = inhibition) at 1uM": 13}
{"molecule": "O=C(O)CCn1c(SCCOc2ccccc2F)nc2ccccc21", "hERG current change (%, negative = inhibition) at 1uM": 10.8}
{"molecule": "CCOc1ccc(S(=O)(=O)Nc2ccc3c(c2)c2c(n3S(=O)(=O)c3ccc(OCC)cc3)CCCC2=O)cc1", "hERG current change (%, negative = inhibition) at 1uM": 13.9}
{"molecule": "Cc1ccccc1C(=O)N1CCC(C(=O)Nc2ccc(S(=O)(=O)N3CCOCC3)cc2)CC1", "hERG current change (%, negative = inhibition) at 1uM": 8.83}
{"molecule": "CC(Nc1ccccc1)c1cc(Cl)ccc1O", "note": "(centres unmarked)", "hERG current change (%, negative = inhibition) at 1uM": 5.5}
{"molecule": "COc1ccc(-c2[nH]c(-c3cc(OC)c4c(c3)OCO4)nc2-c2ccccc2)cc1", "hERG current change (%, negative = inhibition) at 1uM": -4.82}
{"molecule": "CN(C)c1ccc(S(=O)(=O)N2CCCCC2)cc1NC(=O)C1CSC2(C)CCC(=O)N12", "note": "(centres unmarked)", "hERG current change (%, negative = inhibition) at 1uM": 6.62}
{"molecule": "COc1ccc(/C=N/NC(=O)c2cccnc2)c2ccccc12", "hERG current change (%, negative = inhibition) at 1uM": 15.8}
{"molecule": "Cc1ccc(N(CC(=O)Nc2c(C)cccc2C)S(C)(=O)=O)cc1", "hERG current change (%, negative = inhibition) at 1uM": 16.2}
{"molecule": "Cc1cccc(NC(=O)c2ccc(OC3CSC3)cc2)c1", "hERG current change (%, negative = inhibition) at 1uM": 16.1}
{"molecule": "COc1ccc([N+](=O)[O-])cc1NC(=O)c1cn(-c2ccc(C)c(C)c2)c(=O)c2ccccc12", "hERG current change (%, negative = inhibition) at 1uM": 9.63}
{"molecule": "CCCCC(=O)NC(N1CCCCC1)C(Cl)(Cl)Cl", "note": "(centres unmarked)", "hERG current change (%, negative = inhibition) at 1uM": 13.2}
{"molecule": "Cc1cccc(NC(=O)CCNS(=O)(=O)c2ccc3[nH]c(=O)oc3c2)c1", "hERG current change (%, negative = inhibition) at 1uM": -3.97}
{"molecule": "Oc1ccccc1C1CC(c2cccs2)=NC(c2ccc(Cl)cc2)N1", "note": "(centres unmarked)", "hERG current change (%, negative = inhibition) at 1uM": 17.6}
{"molecule": "COc1cccc(C2CC(c3cccs3)=NN2S(C)(=O)=O)c1", "note": "(centres unmarked)", "hERG current change (%, negative = inhibition) at 1uM": 7.15}
{"molecule": "O=C(NC1CCCC1)C(NS(=O)(=O)c1cccc2nsnc12)c1ccccc1", "note": "(centres unmarked)", "hERG current change (%, negative = inhibition) at 1uM": 6.24}
{"molecule": "Cc1cccc(-c2nnc(SCC#N)n2C)c1", "hERG current change (%, negative = inhibition) at 1uM": 9.24}
{"molecule": "CC12CCC(C(=O)NC(c3ccccc3)c3ccccc3)(OC1=O)C2(C)C", "note": "(centres unmarked)", "hERG current change (%, negative = inhibition) at 1uM": 5.02}
{"molecule": "CCOCCCNC(=O)c1cc2c(-c3ccc(Cl)cc3)nn(C)c2s1", "hERG current change (%, negative = inhibition) at 1uM": 11.7}
{"molecule": "CCCC(=O)c1cn(CC(=O)OC)c2ccccc12", "hERG current change (%, negative = inhibition) at 1uM": 14.5}
{"molecule": "O=C(CCc1ccccc1)NCCC1=CCCCC1", "hERG current change (%, negative = inhibition) at 1uM": -0.978}
{"molecule": "CCOC(=O)c1c(C)oc2c(CC(=O)c3ccccc3)c(Cl)c(O)c(O)c12", "hERG current change (%, negative = inhibition) at 1uM": -0.111}
{"molecule": "Cc1nn(Cc2ccc(Cl)cc2Cl)c(Cl)c1C(=O)NC1CCCc2ccccc21", "note": "(centres unmarked)", "hERG current change (%, negative = inhibition) at 1uM": 4.9}
{"molecule": "COc1ccc(S(=O)(=O)N2CCOC2CNC(=O)C(=O)NCc2ccncc2)cc1", "note": "(centres unmarked)", "hERG current change (%, negative = inhibition) at 1uM": 14}
{"molecule": "CCCCOc1ccc(-n2nc(C)cc2C)nn1", "hERG current change (%, negative = inhibition) at 1uM": -5.38}
{"molecule": "O=C(CC(C(=O)O)c1ccccc1)Nc1cccc2ccccc12", "note": "(centres unmarked)", "hERG current change (%, negative = inhibition) at 1uM": 14.1}
{"molecule": "CCOC(=O)C1CCN(C(=O)c2cccs2)CC1", "hERG current change (%, negative = inhibition) at 1uM": 13}
{"molecule": "Cc1cc(C)nc(NC(N)=S)n1", "hERG current change (%, negative = inhibition) at 1uM": 16.2}
{"molecule": "CC(C)COc1cccc(C(=O)Nc2ccc(N3CCOCC3)cc2N2CCOCC2)c1", "hERG current change (%, negative = inhibition) at 1uM": 2.09}
{"molecule": "Cc1cc(NC(=O)c2c(F)cccc2F)n(-c2nc3ccccc3[nH]2)n1", "hERG current change (%, negative = inhibition) at 1uM": 13.4}
{"molecule": "CCc1ccccc1NC(=O)Nc1cccs1", "hERG current change (%, negative = inhibition) at 1uM": 12.6}
{"molecule": "Cc1nn(C)c(C)c1-c1c(C#N)c(N)nc2c1CCCCCC2", "hERG current change (%, negative = inhibition) at 1uM": 1.53}
{"molecule": "CC1=C(C(=O)N2CCCC(C(=O)c3cccc4ccccc34)C2)OCCO1", "note": "(centres unmarked)", "hERG current change (%, negative = inhibition) at 1uM": 24.9}
{"molecule": "Clc1cccc(Cl)c1CSc1cc2c(nn1)-c1ccccc1CC2", "hERG current change (%, negative = inhibition) at 1uM": 15.6}
